Results published in PubChem BioAssay AID588342 (National Center for Advancing Translational Sciences (NCATS), 2011).
Hit rate of the full screen: of about 360,000 compounds, about 25,000 (6.9%) were called active. The shares of active, inactive and inconclusive entries below differ from those in the screen. The call rests on the fitted dose curve; in most records, active means well fitted inhibition curve with a large enough effect; inconclusive means small, poorly fitted or top-dose-only effect; inactive means flat fitted curve, though single readings scatter. A potency beside an inconclusive call is a rough fit, not a confirmed value.

Molecular target: Luciferin 4-monooxygenase (Photinus pyralis) (UniProt P08659)
UniProt P08659, sequence (P08659 whole entry, looked up): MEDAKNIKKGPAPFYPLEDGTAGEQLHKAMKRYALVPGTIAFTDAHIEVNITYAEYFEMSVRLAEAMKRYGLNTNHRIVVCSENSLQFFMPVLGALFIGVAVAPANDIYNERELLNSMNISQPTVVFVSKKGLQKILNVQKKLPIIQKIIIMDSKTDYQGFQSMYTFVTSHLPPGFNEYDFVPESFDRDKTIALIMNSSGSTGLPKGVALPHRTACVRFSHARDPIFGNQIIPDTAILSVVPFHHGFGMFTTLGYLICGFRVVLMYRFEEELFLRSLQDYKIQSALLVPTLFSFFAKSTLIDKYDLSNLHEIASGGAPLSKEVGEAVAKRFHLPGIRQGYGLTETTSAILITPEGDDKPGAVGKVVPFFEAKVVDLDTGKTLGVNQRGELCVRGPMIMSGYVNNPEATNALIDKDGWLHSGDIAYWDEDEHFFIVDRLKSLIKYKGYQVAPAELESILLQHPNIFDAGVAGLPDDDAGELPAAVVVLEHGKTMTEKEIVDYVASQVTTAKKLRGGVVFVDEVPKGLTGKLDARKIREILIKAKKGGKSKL
Assay: qHTS profiling assay for firefly luciferase inhibitor/activator using purifed enzyme and Km concentrations of substrates (counterscreen for miR-21 project); further: nearly all actives have a fitted effect of over 55% in size
Details: purified FLuc, luminescence inhibition; series mostly up to 57.5 µM
Summary of the method: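 Biochemical qHTS of compounds, final roughly 60 µM downward over six points, against 10 nM purified firefly luciferase using Km concentrations of substrates (10 uM D-luciferin, 10 uM ATP) in Tris acetate pH 7.5 buffer; luminescence output.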
Potency means the concentration at half of the fitted maximal effect; tags describe the fitted curve by direction and shape.

Compound | Potency
CCNc1ccccc(-c2ccc3ccccc3n2)c1=O | active: 12 µM
CC1=NN(c2ccccc2)C(=O)/C1=C\c1sccc1C | active: 7.57 µM
Nc1ccc(-c2nc3ncccc3o2)cc1 | inconclusive: 26.9 µM [inhibitor, partial curve]
COc1ccc(-c2cc(OC(=O)c3ccc(Cl)cc3)c3c(C)oc(C)c3c(=O)c2)cc1 | inconclusive: 23.9 µM [inhibitor, partial curve, poor fit]
COc1cc(/C=C/C(=O)OCC(=O)NC(=O)NC(C)(C)C)ccc1O | inconclusive: 37.9 µM [inhibitor, partial curve, poor fit]
CCc1c(C)sc(NC(=O)c2ccccc2[N+](=O)[O-])c1C(N)=O | inconclusive: 19 µM [inhibitor, partial curve, poor fit]
CCc1ccccc1NC(=O)CNC(=O)c1n[nH]c(=O)c2ccccc12 | inactive
CCOC(=O)N1CCN(C(=O)c2ccc(SC)cc2OC)CC1 | inactive
CN(C)S(=O)(=O)c1ccc(Cl)c(C(=O)Nc2nc3ccccc3[nH]2)c1 | inconclusive: 21.3 µM [inhibitor, partial curve, poor fit]
CCOc1ccc(CN(C)C(=O)CCN2C(=O)c3ccccc3C2=O)cc1OC | inactive
COC(=O)c1ccc(Nc2nnc(-c3ccc(C)c(S(=O)(=O)N4CCN(C)CC4)c3)c3ccccc23)cc1 | inconclusive: 10.7 µM [inhibitor, partial curve]
Cc1ccc(C(=O)OCC(=O)NCc2cccs2)cc1C | inconclusive: 21.3 µM [inhibitor, partial curve, poor fit]
Cc1ccc(N(CC(=O)NCc2ccc(Cl)cc2)S(=O)(=O)N(C)C)cc1 | inactive
C/C(=N/Nc1ccnc2cc(Cl)ccc12)c1ccc(O)cc1 | inconclusive: 21.3 µM [inhibitor, single point]
COC(=O)c1ccccc1NC(=O)Cc1nc(-c2ccccc2)sc1-c1ccc(C)cc1 | inconclusive: 26.9 µM [inhibitor, partial curve, poor fit]
COc1ccc(/C=N/NC(=O)c2ccc(CSc3nc(C)cc(C)n3)cc2)cc1O | inconclusive: 37.9 µM [inhibitor, partial curve, poor fit]
Cn1c(=O)c2c([nH]c(OCc3ccc(Cl)cc3Cl)[n+]2Cc2ccc(F)cc2)n(C)c1=O | inconclusive: 30.1 µM [inhibitor, single point]
Cc1ccc(CC(CC(=O)O)C(=O)NCC23CC4CC(CC(C4)C2)C3)cc1 (stereo not drawn) | inconclusive: 30.1 µM [inhibitor, partial curve, poor fit]
